In PubChem BioAssay AID1508624 (National Center for Advancing Translational Sciences (NCATS), 2021):
Out of some 48,000 compounds screened, about 120 (0.25%) were called active. Another 4% or so got no clear call; they are omitted. Calls follow the shape of the dose curve; as a rule, active = well fitted activation curve with a large enough effect; inconclusive = small, poorly fitted or top-dose-only effect, or another doubt; inactive = no such curve, though single readings can be large or run the other way. The list shows a part of the results.

Assay: Primary qHTS for Identification of Small Molecule Activators of Huntingtin-Antisense Promoter Activity; also: nearly all actives have a fitted effect of over 55% in size
Conditions: HEK293 HTT-AS promoter firefly luciferase reporter, 24 h; series mostly up to 57.5 µM; activity change, positive = activation: at the top concentration
Procedure, shortened: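 Firefly luciferase signal from promoter-reporter HEK293 cells was scaled between vehicle (0%) and zero RLU (-100%). Compounds were tested at final concentrations of up to 57.5 uM over 24 h at 37 degrees C. PTC124 at 50 uM final served as control inhibitor.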
Potency is read from the fitted curve at half-maximal effect.

Activity change, positive = activation, inactive:
Cc1cc2nc(-c3ccc(NC(=O)c4ccccc4F)cc3)oc2cc1C 16.3%
COc1ccc(C)cc1NC(=O)CC1NCCNC1=O (centres undefined) -15.7% [at 11.5 µM, percent change from vehicle, -100% = no light]
Cc1cc(=O)n(Cc2ccccc2)c2c1c(C)nn2C -27.9%
COCCNC(=O)c1ccc2nc(Cc3ccccc3)oc2c1 30.6%
CC(C)N(CCCNC(=O)Cn1ncc2c([nH]c3ccccc32)c1=O)Cc1ccccc1 -9.55%
Cc1ccc(Nc2nnc(-c3ccc(C)c(S(=O)(=O)N4CCOCC4)c3)c3ccccc23)cc1 -2.2%
Cc1cc(C)c2c(=O)cc(C(=O)Nc3sc4c(c3C(=O)NCC3CCCO3)CCCC4)oc2c1 (centres undefined) -4.07%
CCC(=O)C1=C(c2ccc(OC)c(OC)c2)N(C(=O)CC)n2c(nnc2-c2ccc(C)cc2)S1 -0.27%
CC(=O)c1ccc(N2CCN(c3ccc4cc(S(=O)(=O)N5CCCCC5)ccc4n3)CC2)cc1 -23.3%
CCOC(=O)c1ccc(NC(=O)CSc2nc3ccccc3c(=O)n2CCC(=O)NC2CCCCC2)cc1 1.95%
COc1ccc(-c2nc(CS(=O)(=O)CC(=O)NCCc3ccc(C)cc3)c(C)o2)cc1 -18.8%
Cc1cc(-c2ccccc2)n2nc(-c3ccccc3)cc2n1 15.9%
Cc1c(C(=O)O)oc2c1-c1nn(Cc3ccc(Cl)cc3)cc1CC2 -24%
CN(C)CCNC(=O)C(=O)NCC(c1ccc2c(c1)OCO2)N1CCOCC1 (centres undefined) 1.64%
Cc1ccc2cccc(NC(=O)C(C)Oc3ccc(Cl)cc3Cl)c2n1 (centres undefined) 6.87%
CCOc1ccc(C(c2c(O)cc(C)n(Cc3ccco3)c2=O)N2CCCCC2)cc1 (centres undefined) 2.69%
COc1ccccc1C(=O)Nc1c(C(=O)Nc2ccccc2F)oc2ccccc12 -27.3%
Cc1ccc(NC(=O)CC2Sc3ccc(C(F)(F)F)cc3NC2=O)cc1 (centres undefined) 17.7%
COc1ccc(CNC(=O)Nc2cn(CC(C)C)c(=O)c3ccccc23)cc1 -16.3%
CC(=O)c1ccc(NC(=O)CN(C)S(=O)(=O)c2cnc[nH]2)cc1 -13.3%
Cc1cc(Cl)ccc1OCC(=O)N1CCC(c2nc3ccccc3s2)CC1 -24.1%
O=C(Nc1cccc(-c2nc3ccccc3o2)c1)C(F)(F)F -91%
C[C@]12CCC(=O)C=C1[C@@H]1CC1[C@H]1[C@H]3[C@@H]4C[C@H]4[C@@]4(CCC(=O)O4)[C@@]3(C)CC[C@H]12 (some centres undefined) -13.3%
Cc1ncc(CO)c(C=O)c1O -11.4%
Cc1ccc(OCCSc2nc(C)c(Cc3ccccc3)c(=O)[nH]2)cc1 -14.2%
Cc1cc(C)c(NC(=O)CSc2nncn3c2cc2oc(C)cc23)c(C)c1 -9.3%
CCN1C(=O)c2ccccc2C1Nc1ccc(OCCN2CCCCC2)cc1 (centres undefined) -2.75%
Cc1cccc(C(=O)Nc2ccc3nc(SCCOc4ccccc4)sc3c2)c1 -13.8%
CN(C)c1ccc(N=NS(=O)(=O)O)cc1 -81.2% [at 116 µM, percent change from vehicle, -100% = no light]
CCCCCOc1ccccc1/C(=C\SC)n1ccnc1 -32.4%
COc1ccc(CCNc2nc(SCc3ccc(Cl)cc3)nc3ccccc23)cc1OC -10.2%
Nc1ncc(S(=O)(=O)Nc2ccc(F)cc2F)cn1 -6.23%
CCc1cnc2c(c1SCC(=O)NCc1ccc(F)cc1)c(=O)n(C)c(=O)n2C -8.19%
COc1ccc(C2C=C(c3ccccc3)Nc3nc(NC(=O)/C=C/c4ccccc4Cl)nn32)cc1 (centres undefined) -13.3%
Nc1c(C(=O)Nc2cccc(F)c2)c2ccccn2c1C(=O)c1ccccc1 2.28%
COc1ccc(N2CCN(C(c3ccccc3F)c3sc4nc(-c5ccco5)nn4c3O)CC2)cc1 (centres undefined) -18.3%
CCOC(=O)c1c(NC(=O)COc2cccc(C)c2C)sc(C(C)=O)c1C 16.6% [at 11.5 µM, percent change from vehicle, -100% = no light]
COc1ccc(Cl)cc1NC(=O)Cn1c(=O)c(-c2ccccc2NC(C)=O)nc2ccccc21 -36%
COc1ccc(NC(=O)CN2C(=O)COc3ccc(S(=O)(=O)N4CCCCC4)cc32)cc1OC 10.1%
CCCCC(=O)N1CCc2cc(OC)c(OC)cc2C1COc1ccc(OC)cc1 (centres undefined) -18.3%
Cc1cc(C)c2c(c1)c(C)cc1nnc(SCC(=O)c3ccc(F)cc3)n12 -10.6%
COC(=O)c1ccccc1NC(=O)Cn1c(=O)cc(C)c2c(C)nn(C)c21 -26%
Cc1ccc(C)c(Cn2c(C(=O)O)c(CNCc3cccs3)c3ccccc32)c1 -29.9%
CC(=O)Nc1c(C)nn(-c2ccccc2)c1N1CCC(C(=O)NCc2ccccc2Cl)CC1 26.7%
Cc1ccc(S(=O)Cc2nc(-c3ccc(C(=O)NCc4cccc(C)c4)cc3)oc2C)cc1 (centres undefined) -12.1%
O=C(CCn1nc(-c2ccc(Cl)cc2)ccc1=O)NCCc1ccccc1 8.81%
CCOC(=O)c1c(NC(=O)CSc2cn(CCNC(=O)c3c(F)cccc3F)c3ccccc23)sc2c1CCC2 -21.3%
COc1ccc(CCN2C(=O)c3[nH]nc(-c4ccccc4O)c3C2c2ccc(OC)c(OC)c2)cc1 (centres undefined) -32.8%
CCOC(=O)c1noc2ncnc(Nc3cccc(OC)c3)c12 -3.18%
CCOC(=O)COc1ccc(F)cc1C(=O)c1ccn2nc(-c3ccc(Cl)cc3)cc2n1 -11%
O=C(COc1ccccc1Cl)Nc1ccc2nc(SCC(=O)N3CCCC3)sc2c1 -31.9%
CCOc1ccc(-n2c(SCC(N)=O)nc3c(oc4ccccc43)c2=O)cc1 -28.9%
COc1cccc(NC(=O)CSc2nc(-c3ccccc3Cl)nc3c2Cc2c(CO)cnc(C)c2O3)c1 -9.68%
COc1ccc(-c2cc(-c3ccccc3)nc(SCC(=O)Nc3ccccc3F)c2C#N)cc1 -2.87%
CCOC(=O)C1=C(CS(=O)(=O)c2ccc(OC)c(Cl)c2)NC(=O)NC1c1cccc(OC)c1 (centres undefined) -14.5%
Clc1cccc(Cl)c1NC1=NCCN1
O=C(CCCc1ccccc1)NC1CC(=O)N(c2ccc(F)cc2)C1 (centres undefined) -12.8%
CC(=O)c1cccc(NS(=O)(=O)c2cc3c(cc2C)N(C(C)=O)CCO3)c1 -5.63%
Cc1ccc(NC(=O)N2CCC(CN3CCCC3)CC2)c(C)c1 -12.4%
Cc1ccc(-c2nc(C(=O)NCc3ccccc3Cl)c3n2CCCCC3)cc1 -33.4%
CCc1cccc(NC(=O)c2ccc(NC(=O)N3CCSc4ncccc43)cc2)c1 -14.3%
Cc1ccc(NC(=O)N2CCN(c3cc(-c4noc(C)n4)ccc3C)CC2)c(F)c1 -36.4%
CCC(=O)Oc1ccc(C2Nc3ccccc3-c3nnc(SC)nc3O2)cc1 (centres undefined) -8.03%
CN1N=C(C(N)=O)CCC1=O 1.69%
O=C1[C@H]2CCCC[C@H]2C(=O)N1CCCCN1CCN(c2nsc3ccccc23)CC1 1.82%
COC(=O)C1CCN(S(=O)(=O)c2ccc(N3CCCCS3(=O)=O)cc2)CC1 -17.6%
COC(=O)c1cc(C)nc2c1c(=O)nc(SCc1ccccc1C)n2C1CC1 -26.5%
Cc1ccc(C(=O)NCC(c2ccc3c(c2)OCO3)N2CCOCC2)cc1 (centres undefined) -9.9%
CCc1nn(CCCC(=O)N2CCN(c3cccc(OC)c3)CC2)c(=O)c2cc3occc3n12 -16.8%
Cc1c(-c2nc(-c3ccc4c(c3)OCO4)no2)nnn1-c1ccc(C(C)C)cc1 -3.29%
Cc1cccc(NC(=O)C(Cc2ccccc2)NS(=O)(=O)c2ccc3c(c2)c(=O)n(C)c(=O)n3C)c1 (centres undefined) -9.15%
COc1ccc(Nc2ncnc3onc(-c4ccc(Cl)cc4)c23)cc1Cl -37.9%
Cc1ccc(NC(=O)c2cn(-c3ccccc3)nc2-c2ccccc2)cc1 -14.6%
CCCCn1c(SCC(=O)Nc2cccc(OC)c2)nc2ccsc2c1=O -29.9%
O=C(NCc1ccccc1)c1ccc(NC(=O)N2CCSc3ncccc32)cc1 -32.6%
COc1cc(OC)c(NC(=O)c2cnn(-c3cccc(Cl)c3C)c2C2CCN(C(=O)OC(C)(C)C)CC2)cc1Cl -0.465%
COc1ccc(-n2cc(-c3ccccc3)c3c(NCc4cccc(Cl)c4)ncnc32)cc1 -13.7%
Cc1ccc(C2=NN(CC(=O)NC(C)c3ccccc3)C(=O)CC2)cc1 (centres undefined) -4.59%
CCOC(=O)c1c(NC(=O)COc2cccc(C)c2C)sc2c1CCCCC2 -13.7% [at 11.5 µM, percent change from vehicle, -100% = no light]
COc1ccc(NC(=O)C2CCC(CNS(=O)(=O)c3csc(C(N)=O)c3)CC2)cc1 (centres undefined) -18.5%
CC(C)c1ccc(Nc2c(-c3ccc(N4CCOCC4)cc3)nc3ncccn23)cc1 -10.4%
Cc1ccc(Cn2ccn(Cc3cccc(C(F)(F)F)c3)c(=O)c2=O)cc1 -9.93%
COc1cccc(NC(=O)CSc2nc3c([nH]c4ccccc43)c(=O)n2-c2cccc(Cl)c2)c1 -1.88%
Cc1ccc(-c2ccc(=O)n(CC(=O)Nc3ccc(C(C)C)cc3)n2)cc1 -8.72%
CCOC(=O)c1ccc(NC(=O)CSc2nc(C)c(Cc3ccccc3)c(=O)[nH]2)cc1 -19.5%
C=CCOc1ccc(C2c3c(oc4ccc(C)cc4c3=O)C(=O)N2CCCN2CCOCC2)cc1 (centres undefined) -3.38%
COc1ccccc1NC(=O)c1c(C)cc(C)nc1SCC(=O)Nc1cccc(C)c1 -22.7%
COCCNC(=O)CCn1c(=O)c2cc(OC)c(OC)cc2n(CC(=O)Nc2ccccc2OC)c1=O -19.5%
Cc1ccc(-n2nc(C)c3c(C)cc(=O)n(CC(=O)NC(C)C)c32)cc1 -3.24%
CCc1cccc(CC)c1N(COC)C(=O)Cn1c(C)nc2ccccc21 -67.6%
CCN(CC)CCOC(=O)c1ccc(NC(=O)CSc2cc(=O)n(CC)c3ccccc23)cc1 9.51%
O=C(Nc1ccc(F)c(Cl)c1)C1Cc2ccccc2CN1S(=O)(=O)c1ccc(F)cc1 (centres undefined) -27.8%
CCc1nn(CC(=O)Nc2ccc(C)cc2C)c(=O)c2cc3sccc3n12 -3.06%

Potency, active:
Cc1ccc2nc(-c3cc(NC(=O)COc4ccc(C)c(C)c4)ccc3Cl)oc2c1 2510 nM
